Read counts are not given, so values of variants with three or more changes are uncertain.
B1: OR4K15 (parent)
chain: GUUAACGGUCAUAGGCCAUGGAAACUAGGAGCACCAUUUCGCUGCCAGUGAAGAAAUGAACAAAGAAAAUCUGGGCCAGGCAGGCAUCAAAAGAAAUAGUCUUGCGCUCAACCAGAAAGUCUGUAAUCAUUUUAAGGGUA

Variants of: B1
Assay: self-cleavage, relative activity (ratio to wild type); higher = more cleavage; in vitro, sequencing; the parent is a self-cleaving ribozyme
U19C G20A A24G U57A C105U gave a self-cleavage of 0.14. Work on U43A A126G U127C yielded a self-cleavage of 1.22. Work on A18G U39C A90G U122A yielded a self-cleavage of 0.87. Variant A23U A62G A118G A140G has a self-cleavage of 0.9. In the case of A4G U43C A114G U122C, the self-cleavage is reported as 0.1. With A24G A56G A94U the self-cleavage was 1.02. For A33G A51G A92G, the self-cleavage was 0.88. In the case of A23G A68G A111C, the self-cleavage is reported as 0. Work on A24G A56G A60G A63G U100A yielded a self-cleavage of 0.7. In the case of A11G A51G A94G, the self-cleavage is reported as 0.89. A24G A30G A62G A92G showed a self-cleavage of 1.02. Variant A95G U122C A126G has a self-cleavage of 1. With A18U A52G U57A A89G the self-cleavage was 0.79. Work on U37C U97A A98G U127C A129G yielded a self-cleavage of 0.31. With A54G A110G A111G A116G the self-cleavage was 0.04. A27G A30G U43C A66G A135U gave a self-cleavage of 0.59. With G21A A47G U57C A78U A82G U102C G136A the self-cleavage was 0.74. In the case of A5G U57G U103C G104A U108C A126G A134G, the self-cleavage is reported as 0. A18G A23U U70C gave a self-cleavage of 0.11. Variant U43C A52G A67G A78U A94U has a self-cleavage of 0.27. Work on U19C A52U A62U yielded a self-cleavage of 1.25. In the case of A18G A33G A59G A110G, the self-cleavage is reported as 0.27. In the case of U103C U108C A111G, the self-cleavage is reported as 0. U87C A91G A116U gave a self-cleavage of 0.03. For U12C U87A A92G U122A, the self-cleavage was 0.86. A52G A82U U102A U131C U132C gave a self-cleavage of 0.27. In the case of U12C A55G A90G, the self-cleavage is reported as 1.22. Work on A94G A110G A116G yielded a self-cleavage of 0.02. With U39C A66U A117G the self-cleavage was 1.72. U2C A4G A59G A90G gave a self-cleavage of 0.47. In the case of A22G G29U U49C A66G A69G A95G U97C, the self-cleavage is reported as 0.82. A5G A18U A51C A54U U122C U132C showed a self-cleavage of 0.03. In the case of U49C A60G A114C, the self-cleavage is reported as 0.01. A23G U37C A82C U120C gave a self-cleavage of 0.1. U43C A62G U139C gave a self-cleavage of 1.6. A4G C32U A67U A90G G115U U132C showed a self-cleavage of 0.16. U9C U43C A52G U102G showed a self-cleavage of 0.85. In the case of U70C U102C U132C, the self-cleavage is reported as 1.62. Work on U9C A27G A67G yielded a self-cleavage of 1.66. For A13G A23U A54G, the self-cleavage was 0.39. Variant A27G A59U A78U U122C has a self-cleavage of 0.22. With A24C A126U A129U the self-cleavage was 0.58. A5U U37C U102C U103C gave a self-cleavage of 0.35. In the case of U43C A51G U57A U122C A126G, the self-cleavage is reported as 1.19. For A5G A33U A62G, the self-cleavage was 1.65. Variant A89G A92G A94G A118U has a self-cleavage of 0.22. U57G A125G U130C gave a self-cleavage of 0.33. G1A A23G U38C A96G U132A showed a self-cleavage of 0.72. With A11U U37C A90G the self-cleavage was 0.99. Variant U2C C25G G31A A62U A92G U103C has a self-cleavage of 0.45. With A11G U19C U43C A60U the self-cleavage was 0.92. For A30G A60G A129G, the self-cleavage was 1.59. In the case of G41A U49C U87A A91G A118G, the self-cleavage is reported as 0.64. With A5G U49C A95G the self-cleavage was 0.99. U2C A13U A24G A66G C128U showed a self-cleavage of 0.83. A51G U103C A110G showed a self-cleavage of 0.09. Work on A91G U122C U124A yielded a self-cleavage of 0.18. U3C A4C U72A A94G gave a self-cleavage of 0.52. In the case of U39A A54U A110U, the self-cleavage is reported as 1.52. In the case of A27U A30G A51C U130C, the self-cleavage is reported as 0.75. A4G C42U U122A showed a self-cleavage of 1.45. With A52G U70C A90G A118G the self-cleavage was 0.25. In the case of A13G U102C A134G, the self-cleavage is reported as 1.22. In the case of A24G C34U U87G, the self-cleavage is reported as 0.7. Variant A18G U49A A67U A98G A140U has a self-cleavage of 0.53. U57C A67G A91G A98U gave a self-cleavage of 1.38. For A23G A47G A59U A66G A126U, the self-cleavage was 0.41. Work on A24U A60G A91G A92G U108A A126G yielded a self-cleavage of 0.01. Work on U39C A78G A91G U97A yielded a self-cleavage of 0.17. For A47U A110G U122C, the self-cleavage was 0.1. Variant U2C U43G A47G has a self-cleavage of 0.6. In the case of A13G U49C C85U A94G C105A A135G, the self-cleavage is reported as 0.04. A63G A67G U124A gave a self-cleavage of 0.63. Variant A94G A98G U100C has a self-cleavage of 1.59. For C10U A51G A111G, the self-cleavage was 0. Work on A55G A69U G106C A111G U132C yielded a self-cleavage of 0.01. With A22G A68G U103C U131C the self-cleavage was 0.19. U37C U49C A66G C77U A129G showed a self-cleavage of 1.8. Variant A52G A64G A82G A89G has a self-cleavage of 1.05. In the case of U19C U70A A78G A94G G106A, the self-cleavage is reported as 0.02. U38C A47G A59G U133C gave a self-cleavage of 0.85. A94U A117G A135G gave a self-cleavage of 1. Variant A23G A52G A56U A60G A111G A116G A118G has a self-cleavage of 0.03. Variant A11U U49C U97A has a self-cleavage of 1.95. With A68G A89U A116G U120C U130C the self-cleavage was 0.25. For U49C A60G U103C, the self-cleavage was 0.16. For A63G U102A C112G A129C, the self-cleavage was 0.01. Variant A18G A94G U132C has a self-cleavage of 2.47. Variant A23G A63G A64G has a self-cleavage of 0.75. With A11C C32U A129U the self-cleavage was 0.76. With A56U U97C U132C the self-cleavage was 0.41. U2C U9A G53A U130C showed a self-cleavage of 0.5. With G14A U39A A51G the self-cleavage was 1.04. Variant A47G A86U A114U has a self-cleavage of 0.01. For U2C A63G A89G U132G, the self-cleavage was 1.39. U3C A90G U133C gave a self-cleavage of 1.63. In the case of A55G U130A A135G, the self-cleavage is reported as 0.33. Work on C35A A95G A114G yielded a self-cleavage of 0.84. For U39C A56G A110G, the self-cleavage was 0.22. For U37C A118U A134G, the self-cleavage was 0.22. Work on U57C C105U A114G yielded a self-cleavage of 0.02. Variant A22G A51C A78G U120C has a self-cleavage of 0.27. Variant U9A U26C A56G A63G U102C has a self-cleavage of 1.95. Work on G1U A89G A111U yielded a self-cleavage of 0.16. Variant U37C A62G U72C has a self-cleavage of 0.28. Work on G8A A36G U49G A126G yielded a self-cleavage of 1.32. With U19A C40A A64G U103C U127C the self-cleavage was 0.78. With A55G A68G A69G A78G the self-cleavage was 0.45. Variant U12C U57C A67G has a self-cleavage of 1.59. With A24C A118G U127A the self-cleavage was 1.71. U3C A52U A118G showed a self-cleavage of 1.06. Variant A23G A60G A114U has a self-cleavage of 0.07. For A52G A69G A94G U108C, the self-cleavage was 0.01. Work on U9C A22G A52U U108C C121U yielded a self-cleavage of 0.02. A30G A89G A116G showed a self-cleavage of 0.79. With A11G A95G U139A the self-cleavage was 2.15. In the case of A54G U72C A111G U120C, the self-cleavage is reported as 0.07. A27G A52G A55G A91G A96G U108C U122C gave a self-cleavage of 0.01. With U19C G21U A67G A129U the self-cleavage was 1.16. Variant U12A A18G A33G A52G A60G has a self-cleavage of 0.62. Work on U9A A13G U49C A95U yielded a self-cleavage of 1.18. Work on U3A U57C U132G yielded a self-cleavage of 1.08. In the case of U12A A55G A92G, the self-cleavage is reported as 1.1. Work on A33G A54G A69G U102C yielded a self-cleavage of 1.49. For A62G U108A A135G, the self-cleavage was 0.03. In the case of A78G A96G U133C, the self-cleavage is reported as 0.21. Work on A60G A98G A116G yielded a self-cleavage of 0.09. For A13G A51G U57C A94G U127C, the self-cleavage was 1.13. U37C A55G A68G gave a self-cleavage of 1.61. A56G A95G U100A showed a self-cleavage of 1.36. Variant U19A C107U U130C has a self-cleavage of 0.01. Work on A30G A94G U103C A114G A125G yielded a self-cleavage of 0.08. A52G A64G A140U gave a self-cleavage of 1.18. Work on A24G U43C U108A A116U yielded a self-cleavage of 0.01. Variant U3C A27U A54G A66C A116G has a self-cleavage of 0.41. In the case of A22U A55G A126G, the self-cleavage is reported as 0.57. In the case of A11C A118U A126G A140G, the self-cleavage is reported as 0.07. With A67G U72C U102C the self-cleavage was 0.3. Work on A47G G84A U120C yielded a self-cleavage of 1.56. In the case of A30U U37C A67G A69G A78G U132C, the self-cleavage is reported as 0.14. Work on A23G A51G A52U U122A yielded a self-cleavage of 0.83. With A23U U57C A69G U103C A129G the self-cleavage was 0.62. U19C A55C U100A C109U gave a self-cleavage of 0.06. With G7U A82U A98C U108C U122C the self-cleavage was 0.01. Work on U9C A24G A54U A59G A95G yielded a self-cleavage of 1.48. In the case of U9A A63G G138A, the self-cleavage is reported as 1.54. Variant A5G A59G A125G has a self-cleavage of 0.86. A5G G83A U131C showed a self-cleavage of 0.85. For A5G A11G A23G G50A A90G, the self-cleavage was 0.84. Variant A47G U49C A86G A140G has a self-cleavage of 0.45. Variant A4G A23G A24G C40U A54G A60G A82G U122C U131C has a self-cleavage of 0.33. Work on A5G U57A A92G A111U yielded a self-cleavage of 0.07. Variant A55G A110G U127A has a self-cleavage of 0.32. A30G A67G U120C showed a self-cleavage of 0.72. With A5G A13U A68U A117G the self-cleavage was 1.73. For A5G A91G U102C, the self-cleavage was 1.31. With A13G A60G U120C the self-cleavage was 1.09. Work on A22G U72C A82U A86G A95G yielded a self-cleavage of 0.31. For U9C U49C U132C, the self-cleavage was 1.43. U38C U100C U132C showed a self-cleavage of 3. Variant A63U A69G U72C has a self-cleavage of 0.42. With A5G A23G A36G A59G A94G the self-cleavage was 0.83. A33G U39A U49C A94G gave a self-cleavage of 1.43. U49C A59G A66G U87C gave a self-cleavage of 0.92. For U38C U49C U122C, the self-cleavage was 1.34. Variant U2C U3C A18U A22G A92G has a self-cleavage of 0.41. Variant A47U U49A A52G A63U U102C U132A has a self-cleavage of 1.49.
